Our source for the cell count values is the supplement of paper PMC4604168 (melanoma cell lines).

Structures are written as SMILES. The list shows a part of the results. Repeats are few or missing, and single values can be far off.

Experiment in all cases: cell count relative to DMSO control; melanoma cells; higher = more viable cells
Common to all, as to conditions: library dose: low library concentration; 72 h

The test system of experiment [1] is WM115.
The test system of experiment [2] is WM1716.
Experiment [3] has as its system WM1745.
In experiment [4] the test system is WM3526.
Experiment [5] has as its system WM3619.
Experiment [6] relates to WM451Lu.
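Note: cell number obtained by counting DAPI-stained nuclei in high-throughput microscope images with image analysis software, screen run in 1,536-well plates.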

As to `CC1(C)CCC(c2ccc(Cl)cc2)=C(CN2CCN(c3ccc(C(=O)NS(=O)(=O)c4ccc(N[C@H](CCN5CCOCC5)CSc5ccccc5)c(S(=O)(=O)C(F)(F)F)c4)cc3)CC2)C1` + NCC(=O)Nc1ccc(-n2nc(C(F)(F)F)cc2-c2ccc3c(ccc4ccccc43)c2)cc1 [OSU03012] (first compound 0.4 µM, partner dose 1 µM), the cell count in experiment [1] turned out to be 60.8%; in experiment [2] it was 68.4%; in experiment [3] it was 13.5%; in experiment [4] it was 32.9%; in experiment [5], 94.2%; in experiment [6], 73.5%.
On to `Cc1ccc(Nc2nccc(N(C)c3ccc4c(C)n(C)nc4c3)n2)cc1S(N)(=O)=O` [Pazopanib] + NC(=O)c1ccc(N(C(N)=O)c2c(F)cccc2F)nc1-c1ccc(F)cc1F [VX702] (first compound 0.4 µM, partner dose 0.4 µM), for which the cell count came out at 97.7% in experiment [1]; 97.8% in experiment [2]; 83.5% in experiment [3]; 88.8% in experiment [4]; 105% in experiment [5]; 99.5% in experiment [6].
For the molecule `Cc1ccc(Nc2nccc(N(C)c3ccc4c(C)n(C)nc4c3)n2)cc1S(N)(=O)=O` [Pazopanib] + COc1ccc(-c2ccc3c(N4CCOCC4)nc(N4C[C@@H](C)O[C@@H](C)C4)nc3n2)cc1CO [KU0063794] (first compound 0.4 µM, partner dose 0.02 µM), the cell count in experiment [1] turned out to be 93.8%; in experiment [2], 84.9%; in experiment [3] it was 95.6%; in experiment [4], 86.6%; in experiment [5], 83.8%; in experiment [6] it was 95.8%.
For the molecule `CC1(C)CCC(c2ccc(Cl)cc2)=C(CN2CCN(c3ccc(C(=O)NS(=O)(=O)c4ccc(N[C@H](CCN5CCOCC5)CSc5ccccc5)c(S(=O)(=O)C(F)(F)F)c4)cc3)CC2)C1` + Cn1c(=O)n(-c2ccc(C(C)(C)C#N)cc2)c2c3cc(-c4cnc5ccccc5c4)ccc3ncc21 [NVP-BEZ235] (first compound 0.4 µM, partner dose 0.004 µM), the cell count in experiment [1] worked out at 88.6%; in experiment [2], 79.9%; in experiment [3], 11%; in experiment [4], 81%; in experiment [5], 63.5%; in experiment [6], 79%.
Regarding `Cc1ccc(Nc2nccc(N(C)c3ccc4c(C)n(C)nc4c3)n2)cc1S(N)(=O)=O` [Pazopanib] + COc1cc2ncnc(Nc3ccc(Oc4ccccc4)cc3)c2cc1OC [SrcI1] (first compound 0.4 µM, partner dose 2 µM), the cell count in experiment [1] came to 91.5%; in experiment [2], 107%; in experiment [3], 95%; in experiment [4], 85.1%; in experiment [5], 96%; in experiment [6], 89.2%.
In the case of `CC1(C)CCC(c2ccc(Cl)cc2)=C(CN2CCN(c3ccc(C(=O)NS(=O)(=O)c4ccc(N[C@H](CCN5CCOCC5)CSc5ccccc5)c(S(=O)(=O)C(F)(F)F)c4)cc3)CC2)C1` + Cn1cncc1[C@@](N)(c1ccc(Cl)cc1)c1ccc2c(c1)c(-c1cccc(Cl)c1)cc(=O)n2C [tipifarnib] (first compound 0.4 µM, partner dose 0.01 µM), the cell count was 64.8% in experiment [1]; 48.2% in experiment [2]; 11.3% in experiment [3]; 76.1% in experiment [4]; 60.2% in experiment [5]; 68.7% in experiment [6].
In the case of `O=C(/C=C/c1cccnc1)NCCCCC1CCN(C(=O)c2ccccc2)CC1` + Cc1nc(Nc2ncc(C(=O)Nc3c(C)cccc3Cl)s2)cc(N2CCN(CCO)CC2)n1 [dasatanib] (first compound 0.01 µM, partner dose 0.004 µM), the cell count worked out at 79.4% in experiment [1]; 76.6% in experiment [2]; 74.9% in experiment [3]; 83.8% in experiment [4]; 78.4% in experiment [5]; 82% in experiment [6].
Regarding `O=C(/C=C/c1cccnc1)NCCCCC1CCN(C(=O)c2ccccc2)CC1` + Cc1cc(N2CCOCC2)cc2[nH]c(-c3c(NC[C@@H](O)c4cccc(Cl)c4)cc[nH]c3=O)nc12 [BMS536924] (first compound 0.01 µM, partner dose 0.2 µM), the cell count came out at 100% in experiment [1]; 94.5% in experiment [2]; 85.9% in experiment [3]; 79.8% in experiment [4]; 75.7% in experiment [5]; 92.6% in experiment [6].
Turning to `CC1(C)CCC(c2ccc(Cl)cc2)=C(CN2CCN(c3ccc(C(=O)NS(=O)(=O)c4ccc(N[C@H](CCN5CCOCC5)CSc5ccccc5)c(S(=O)(=O)C(F)(F)F)c4)cc3)CC2)C1` + CC(C)CCN1c2nc(Nc3cc(F)c(O)c(F)c3)ncc2N(C)C(=O)C1C [BID1870] (first compound 0.4 µM, partner dose 0.2 µM), the cell count in experiment [1] came to 60.6%; in experiment [2], 55.2%; in experiment [3] it was 34.9%; in experiment [4], 71.2%; in experiment [5] it was 108%; in experiment [6], 88.6%.
In the case of `Cc1ccc(Nc2nccc(N(C)c3ccc4c(C)n(C)nc4c3)n2)cc1S(N)(=O)=O` [Pazopanib] + C[C@]1(O)C[C@@H](c2nc(-c3ccc4ccc(-c5ccccc5)nc4c3)c3c(N)nccn32)C1 [OSI906] (first compound 0.4 µM, partner dose 0.4 µM), the cell count in experiment [1] was found to be 96.8%; in experiment [2] it was 107%; in experiment [3], 72.7%; in experiment [4], 105%; in experiment [5] it was 88.1%; in experiment [6], 86.8%.
Regarding `CC1(C)CCC(c2ccc(Cl)cc2)=C(CN2CCN(c3ccc(C(=O)NS(=O)(=O)c4ccc(N[C@H](CCN5CCOCC5)CSc5ccccc5)c(S(=O)(=O)C(F)(F)F)c4)cc3)CC2)C1` + Nc1cccc2c1CN(C1CCC(=O)NC1=O)C2=O [lenalidomide] (first compound 0.4 µM, partner dose 1 µM), the cell count in experiment [1] is 83.8%; in experiment [2] it was 71.9%; in experiment [3] it was 14%; in experiment [4] it was 86.9%; in experiment [5] it was 77.9%; in experiment [6] it was 91.7%.
As to `Cc1ccc(Nc2nccc(N(C)c3ccc4c(C)n(C)nc4c3)n2)cc1S(N)(=O)=O` [Pazopanib] + Cc1cc(Nc2cc(N3CCN(C)CC3)nc(/C=C/c3ccccc3)n2)n[nH]1 [ENMD2076] (first compound 0.4 µM, partner dose 0.04 µM), the cell count in experiment [1] was found to be 90.2%; in experiment [2] it was 86.3%; in experiment [3], 106%; in experiment [4] it was 85.5%; in experiment [5], 74.9%; in experiment [6] it was 90.6%.
With `Cc1ccc(Nc2nccc(N(C)c3ccc4c(C)n(C)nc4c3)n2)cc1S(N)(=O)=O` [Pazopanib] + C#Cc1cccc(Nc2ncnc3cc(OCCOC)c(OCCOC)cc23)c1 [erlotinib] (first compound 0.4 µM, partner dose 0.8 µM), the cell count amounted to 92.2% in experiment [1]; 80.6% in experiment [2]; 89.5% in experiment [3]; 95.6% in experiment [4]; 107% in experiment [5]; 94.5% in experiment [6].
As for `O=C(/C=C/c1cccnc1)NCCCCC1CCN(C(=O)c2ccccc2)CC1` + O=c1cc(-c2cccc3c2Sc2ccccc2S3)oc(N2CCOCC2)c1 [KU55933] (first compound 0.01 µM, partner dose 1 µM), the cell count in experiment [1] is 88.7%; in experiment [2], 92.8%; in experiment [3], 84%; in experiment [4], 89.9%; in experiment [5] it was 81.2%; in experiment [6], 117%.
In the case of `O=C(/C=C/c1cccnc1)NCCCCC1CCN(C(=O)c2ccccc2)CC1` + Cn1c(Nc2ccc(C(F)(F)F)cc2)nc2cc(Oc3ccnc(-c4ncc(C(F)(F)F)[nH]4)c3)ccc21 [CHIR265] (first compound 0.01 µM, partner dose 0.08 µM), the cell count in experiment [1] was 62.1%; in experiment [2], 89.4%; in experiment [3], 69.1%; in experiment [4] it was 67.1%; in experiment [5] it was 70.8%; in experiment [6], 100%.
For `CC1(C)CCC(c2ccc(Cl)cc2)=C(CN2CCN(c3ccc(C(=O)NS(=O)(=O)c4ccc(N[C@H](CCN5CCOCC5)CSc5ccccc5)c(S(=O)(=O)C(F)(F)F)c4)cc3)CC2)C1` + COc1ccc(COc2ccc(Cc3cnc(N)nc3N)cc2OC)cc1 [GW2580] (first compound 0.4 µM, partner dose 1 µM), the cell count in experiment [1] worked out at 92.8%; in experiment [2] it was 102%; in experiment [3] it was 17.4%; in experiment [4], 97.6%; in experiment [5], 79.7%; in experiment [6] it was 87.8%.
On to `CC1(C)CCC(c2ccc(Cl)cc2)=C(CN2CCN(c3ccc(C(=O)NS(=O)(=O)c4ccc(N[C@H](CCN5CCOCC5)CSc5ccccc5)c(S(=O)(=O)C(F)(F)F)c4)cc3)CC2)C1` + CN(NC(=O)CC(=O)NN(C)C(=S)c1ccccc1)C(=S)c1ccccc1 [STA4783] (first compound 0.4 µM, partner dose 0.006 µM), for which the cell count turned out to be 59% in experiment [1]; 65.8% in experiment [2]; 8.33% in experiment [3]; 68.4% in experiment [4]; 64.4% in experiment [5]; 121% in experiment [6].
For `O=C(/C=C/c1cccnc1)NCCCCC1CCN(C(=O)c2ccccc2)CC1` + NC(=O)Nc1cc(-c2cccc(F)c2)sc1C(=O)N[C@H]1CCCNC1 [AZD7762] (first compound 0.01 µM, partner dose 0.02 µM), the cell count came to 76.8% in experiment [1]; 98.9% in experiment [2]; 84.2% in experiment [3]; 77% in experiment [4]; 47.5% in experiment [5]; 108% in experiment [6].
On to `O=C(/C=C/c1cccnc1)NCCCCC1CCN(C(=O)c2ccccc2)CC1` + O=C(O)c1ccc2c(c1)nc(Nc1cccc(Cl)c1)c1ccncc12 [CX4945] (first compound 0.01 µM, partner dose 0.4 µM), for which the cell count in experiment [1] is 101%; in experiment [2], 80.7%; in experiment [3], 97.2%; in experiment [4], 82.9%; in experiment [5], 89.8%; in experiment [6], 98%.
On to `CC1(C)CCC(c2ccc(Cl)cc2)=C(CN2CCN(c3ccc(C(=O)NS(=O)(=O)c4ccc(N[C@H](CCN5CCOCC5)CSc5ccccc5)c(S(=O)(=O)C(F)(F)F)c4)cc3)CC2)C1` + O=C(O)C(=O)Nc1sc2c(c1C(=O)O)CCNC2 [TCS401] (first compound 0.4 µM, partner dose 1.66667 µM), for which the cell count in experiment [1] was determined as 89.9%; in experiment [2] it was 83.6%; in experiment [3], 7.46%; in experiment [4] it was 85.4%; in experiment [5], 86.6%; in experiment [6] it was 74.8%.
In the case of `O=C(/C=C/c1cccnc1)NCCCCC1CCN(C(=O)c2ccccc2)CC1` + NCC(=O)Nc1ccc(-n2nc(C(F)(F)F)cc2-c2ccc3c(ccc4ccccc43)c2)cc1 [OSU03012] (first compound 0.01 µM, partner dose 1 µM), the cell count in experiment [1] stood at 82.6%; in experiment [2], 99.9%; in experiment [3], 103%; in experiment [4], 49.6%; in experiment [5], 90.7%; in experiment [6], 55.4%.
Consider `Cc1ccc(Nc2nccc(N(C)c3ccc4c(C)n(C)nc4c3)n2)cc1S(N)(=O)=O` [Pazopanib] + NCC(=O)Nc1ccc(-n2nc(C(F)(F)F)cc2-c2ccc3c(ccc4ccccc43)c2)cc1 [OSU03012] (first compound 0.4 µM, partner dose 1 µM), for which the cell count in experiment [1] stood at 84.4%; in experiment [2], 98.6%; in experiment [3] it was 123%; in experiment [4], 48.5%; in experiment [5], 94%; in experiment [6], 72.5%.
For `Cc1ccc(Nc2nccc(N(C)c3ccc4c(C)n(C)nc4c3)n2)cc1S(N)(=O)=O` [Pazopanib] + CNC(=O)c1cc(Oc2ccc(NC(=O)Nc3ccc(Cl)c(C(F)(F)F)c3)cc2)ccn1 [sorafenib] (first compound 0.4 µM, partner dose 0.4 µM), the cell count in experiment [1] was 82.3%; in experiment [2], 79.8%; in experiment [3], 89.2%; in experiment [4], 82.6%; in experiment [5], 80.2%; in experiment [6], 108%.
In the case of `CC1(C)CCC(c2ccc(Cl)cc2)=C(CN2CCN(c3ccc(C(=O)NS(=O)(=O)c4ccc(N[C@H](CCN5CCOCC5)CSc5ccccc5)c(S(=O)(=O)C(F)(F)F)c4)cc3)CC2)C1` + CN(C)S(=O)(=O)c1ccc2c(c1)/C(=C/c1cc3c([nH]1)CCCC3)C(=O)N2 [SU6656] (first compound 0.4 µM, partner dose 0.4 µM), the cell count in experiment [1] came to 64.5%; in experiment [2], 70.1%; in experiment [3], 8.17%; in experiment [4], 103%; in experiment [5], 95.5%; in experiment [6], 73.5%.
